Laboratory results as given in PubChem BioAssay AID686979 (National Center for Advancing Translational Sciences (NCATS), 2013).
Hit rate of the full screen: of about 420,000 compounds, about 50,000 (12%) were called active. The shares of active, inactive and inconclusive entries below differ from those in the screen. The call rests on the fitted dose curve; in most records, active means well fitted inhibition curve with a large enough effect; inconclusive means small, poorly fitted or top-dose-only effect; inactive means flat fitted curve, though single readings scatter. Potencies of inconclusive entries are left out as doubtful fits.
On the % scale 0 is the no-effect control and ±100 the full control effect; potency means the concentration at half of the fitted maximal effect; tags describe the fitted curve by direction and shape.

Assay: qHTS for Inhibitors of human tyrosyl-DNA phosphodiesterase 1 (TDP1): qHTS in cells in presence of CPT; further: nearly all actives have a fitted effect of over 55% in size
Conditions: chicken DT40 Tdp1-/-;hTDP1 cells + 20 nM CPT, ATP luminescence, 48 h; activity change, negative = growth inhibition: at 46.2 µM (top of the series) unless noted
Summary of the method: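 Chicken DT40 Tdp1-/- cells complemented with human TDP1, 400 cells/well, exposed to compounds plus 20 nM camptothecin for at least 48 h at 37 C; viability read as ATP content by CellTiter-Glo luminescence.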
For `CCc1ccccc1Nc1ncnc2ccccc12`, the activity change, negative = growth inhibition was inconclusive: -33.2% [inhibitor].
With `CCOC(=O)CSc1cc(CS(=O)c2ccc(Cl)cc2)nc(-c2ccccc2)n1` (stereo not given) the Potency was inconclusive [inhibitor, single point].
With `CC(Sc1nc2ccccc2c(=O)n1C)C(=O)NC1CCCCC1C` (stereo not given) the Potency was active: 4.11 µM.
In the case of `O=C(NCc1ccco1)c1ccc(Cl)c(S(=O)(=O)N2CCCC2)c1`, the Potency is reported as inconclusive [inhibitor, partial curve].
With `CCNC(=S)NNc1nncc2ccccc12` the Potency was inconclusive [inhibitor, single point].
With `CCCn1c(C)cc(C(=O)COc2ncnc3sccc23)c1C` the Potency was inconclusive [inhibitor, single point].
For `CCC(=O)N1CCN(c2ccc(NC(=O)c3cc4ccccc4o3)cc2)CC1`, the Potency was inconclusive [inhibitor, single point].
In the case of `N#Cc1c(NCc2ccccc2)ccnc1Cl`, the Potency is reported as inconclusive [inhibitor, partial curve].
In the case of `CCOC(=O)[C@H](CCc1ccccc1)N[C@@H](C)C(=O)N1[C@H](C(=O)O)C[C@@H]2CCC[C@@H]21`, the Potency is reported as “inactive”.
With `COc1ccc(C2=C(C)C(=O)N(Cc3ccc(C(=O)NC(C)c4ccccc4)cc3)S2(=O)=O)cc1` (stereo not given) the “activity change, negative = growth inhibition” value was inactive: -12.3%.
For `COC(=O)c1sccc1S(=O)(=O)Nc1ccc(N2CCCCC2)cc1`, the Potency was inconclusive [inhibitor, single point].
With `N#Cc1ccc(/C=C2\CCn3c2nc2cc(C(=O)O)ccc2c3=O)cc1` the “activity change, negative = growth inhibition” value was inactive: -17.5%.
In the case of `NCC(c1ccccc1)(c1ccccc1)c1ccccc1`, the Potency is reported as inconclusive [inhibitor, single point].
In the case of `COc1cccc(C2c3c(C)nn(-c4ccc([N+](=O)[O-])cc4)c3N=C3C(=O)Nc4ccccc4N32)c1` (stereo not given), the Potency is reported as active: 13 µM.
For `CCSc1ncc(Cl)c(C(=O)Nc2ccccc2C)n1`, the “activity change, negative = growth inhibition” value was inactive: -11.1%.
In the case of `Cc1cnc(CNC(=O)CC2C(=O)NCCN2Cc2ccccc2C(F)(F)F)cn1` (stereo not given), the “activity change, negative = growth inhibition” value is reported as inactive: -7.48%.
In the case of `COc1ccccc1-c1nn(-c2ccccc2)cc1C(=O)NCC(c1ccco1)N1CCCC1` (stereo not given), the Potency is reported as inconclusive [inhibitor, single point].
In the case of `O=C(c1ccc2c(c1)OCO2)C1CCCN(C(=O)NCc2ccccc2)C1` (stereo not given), the Potency is reported as inconclusive [inhibitor, single point].
In the case of `NC(=O)c1cc(Br)cc(C2CCCCC2)c1O`, the “activity change, negative = growth inhibition” value is reported as inactive: 7.85%.
For `Cc1cc(C)c(S(=O)(=O)N2CCN(C(=O)c3cc4ccccc4o3)CC2)c(C)c1`, the Potency was inconclusive [inhibitor, partial curve].
